Source: PubChem BioAssay AID1345082 (National Center for Advancing Translational Sciences (NCATS), 2018)
In all, about 94,000 compounds went through this assay and about 4,000 (4.3%) were called active. This list was built around the results that the source calls inconclusive (neither active nor inactive); the mix of calls is not that of the screen. Calls come from the whole dose curve; as a rule, active = well fitted inhibition curve with a large enough effect; inconclusive = small, poorly fitted or top-dose-only effect; inactive = no such curve, though single readings can be large or run the other way. Potencies beside an inconclusive call are fits to weak or partial responses and may not hold up.

Assay: Cytotoxic Profiling in NIH 3T3 Cell Line of Diverse Libraries Using Quantitative High-Throughput Screening; note: nearly all actives have a fitted effect of over 55% in size
Conditions: NIH 3T3 viability, CellTiter-Glo ATP luminescence, 48-72 h; activity change, negative = cytotoxicity: at 96.7 µM (top of the series) unless noted; series mostly up to 96.7 µM
Method in brief: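 NIH 3T3 cells at 400 cells/well received 23 nL of compound by pintool and were incubated 48 or 72 h at 37 °C. Viability was read as ATP-coupled CellTiter-Glo luminescence.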
% is set by controls: 0 for no effect and ±100 for the full control effect; potency is the fitted concentration of half-maximal effect; tags give direction and shape of the fitted curve.

| Compound | outcome | Potency | activity change, negative = cytotoxicity |
| --- | --- | --- | --- |
| COc1cccc(C(=O)N2CCC(Oc3ncccc3C(=O)N3CCCCC3)C2)c1OC (centres undefined) | inactive |  |  |
| CC[C@H]1CN(C(=O)c2ccc(F)cc2)CC[C@H]1CC(=O)NCc1cccs1 |  | inconclusive: 126 µM [inhibitor, single point] |  |
| Cc1ncc2c(N3CC4CCC(C3)N4CC(F)(F)F)nc3ccccc3n12 |  | inconclusive: 12.6 µM [inhibitor, partial curve, poor fit] |  |
| CC(C)c1noc(-c2cn(C3CCN(C(=O)c4cccs4)CC3)nn2)n1 |  | inconclusive: 56.2 µM [inhibitor, partial curve, poor fit] |  |
| O=C(c1ccc(F)cc1)N1CCC(Oc2ccccc2)C1 (centres undefined) | inactive |  |  |
| O=C(NCc1ccccc1)N[C@H]1CO[C@H]2[C@@H]1OC[C@@H]2n1cc(-c2ccccn2)nn1 |  |  | inactive: -4.81% [at 174 µM] |
| Cc1ccc(CNC(=O)c2ccc3c(c2)CN(Cc2cccnc2Cl)CCO3)cc1 |  | inconclusive: 44.7 µM [inhibitor, partial curve, poor fit] |  |
| COc1cccc(-c2cc(C(=O)NCCn3nc(C)c(Cl)c3C)[nH]n2)c1 |  | inconclusive: 50.1 µM [inhibitor, partial curve, poor fit] |  |
| CCCN1CCCC2(Cc3ccccc3CN(C(=O)c3c(C)noc3C)C2)C1 (centres undefined) |  |  | inactive: -8.49% |
| Cc1ccsc1C(=O)N1CCC2(CC1)CC(N(Cc1ccc(F)cc1)C1CC1)CCO2 (centres undefined) |  | inconclusive: 44.7 µM [inhibitor, partial curve, poor fit] |  |
| CCOC(=O)c1cccc(NC(=O)N2CC[C@@H](CC(=O)NCCSC)[C@@H](CC)C2)c1 |  | inconclusive: 89.1 µM [inhibitor, partial curve] |  |
| COc1ccc(S(=O)(=O)N[C@H]2C[C@@H](c3nc(-c4ccc5c(c4)OCO5)no3)N(C)C2)cc1 |  | inconclusive: 7.94 µM [inhibitor, full curve, poor fit] |  |
| O=C1CC(c2noc(-c3nccc4ccccc34)n2)CN1C1CCCCC1 (centres undefined) |  | inconclusive: 70.8 µM [inhibitor, single point] |  |
| CCCc1nnc(C[C@@H]2C[C@@H](C(C)C)[C@H](CN3CCN(c4ncccn4)CC3)C=C2C)o1 |  | inconclusive: 44.7 µM [inhibitor, partial curve, poor fit] |  |
| CC(C)NC(=O)C1CN(c2cccc(Cl)c2)C(=O)N1 (centres undefined) |  | inactive |  |
| O=C(C[C@@H]1CCNC[C@@H]1Cc1cc(CSc2ccccc2)on1)NCc1ccc2c(c1)OCO2 |  | inconclusive: 50.1 µM [inhibitor, partial curve, poor fit] |  |
| CN1CCN(c2ccc(-c3nccc4c(=O)cc(N(C)C5CCOCC5)oc34)cn2)CC1 |  | active: 89.1 µM |  |
| COc1cccc(C(=O)NC2CCCN(c3ccnc4ccnn34)C2)c1 (centres undefined) |  | inconclusive: 50.1 µM [inhibitor, partial curve, poor fit] |  |
| CC(=O)N1CCN(C(=O)C[C@@H]2CCNC[C@@H]2Cc2cc(-c3ccccc3)on2)CC1 |  |  | inactive: 0.147% [at 138 µM] |
| CNC(=O)CCn1ncc2cc(OCc3ccccc3-c3c(F)cccc3OC)ccc21 |  | inconclusive: 89.1 µM [inhibitor, partial curve, poor fit] |  |
| Cc1ccc(Cl)cc1NC(=O)CN1C(=O)NC(c2ccc(Cl)cc2)C2=C1COC2=O (centres undefined) |  | active: 35.5 µM |  |
| O=C(N[C@H]1CO[C@H]2[C@@H]1OC[C@@H]2n1cc(-c2ccccc2)nn1)c1ccc(C(F)(F)F)cc1 |  | inconclusive: 56.2 µM [inhibitor, partial curve, poor fit] |  |

| Compound | outcome | Potency | activity change, negative = cytotoxicity |
| --- | --- | --- | --- |
| CC(=O)N[C@@H]1C=C(C(=O)NCCC(N)=O)C[C@@H](O)[C@@H]1O |  |  | inactive: -8.06% [at 174 µM] |
| Cc1ccccc1NC(=O)N1CCCC(c2noc(COc3ccccc3)n2)C1 (centres undefined) |  | inconclusive: 44.7 µM [inhibitor, partial curve, poor fit] |  |
| COCCN1C(=O)Cc2ccccc2C1C(=O)NCc1ccccc1 (centres undefined) | inactive |  |  |
| O=C(C1CCCCC1)N1CCN2CCS(=O)(=O)N(C3CC3)C(=O)C2C1 (centres undefined) |  |  | inactive: -38.7% |
| O=C1c2c(nc(COc3cc(F)cc(F)c3)n2Cc2ccccc2)NCCN1CC1CCOCC1 |  | inconclusive: 44.7 µM [inhibitor, partial curve, poor fit] |  |
| Cc1cccc(OCC(=O)NCCn2cccc2-c2nc(-c3ccc4c(c3)OCO4)no2)c1 |  | inconclusive: 39.8 µM [inhibitor, partial curve, poor fit] |  |
| COc1ccc(-c2nnc([C@H]3CCN(C(=O)C4CCCCC4)C3)o2)cc1 |  | inconclusive: 112 µM [inhibitor, single point] |  |
| COc1ccc(C(C)NC(=O)c2ccc(Cn3ccn4nc5c(c4c3=O)CCCC5)cc2)cc1 (centres undefined) |  |  | inactive: -20.2% |
| Cc1ccc(C2NC(=O)N(CC(=O)Nc3cccc(C#N)c3)C3=C2C(=O)OC3)cc1 (centres undefined) |  | inconclusive: 44.7 µM [inhibitor, partial curve, poor fit] |  |
| CNC(=O)c1cc(-c2cnc(OC)nc2)cc2c1OCCN2Cc1cccnc1 |  | inconclusive: 17.8 µM [inhibitor, partial curve, poor fit] |  |
| COc1ccc(C(=O)N2CCCCCCN(C)C(=O)[C@@H]3CCC[C@@H]32)c(OC)c1 |  |  | inactive: -3.14% |
| COc1ccc(-n2c(=O)c(C(=O)N3CCN(c4ncccn4)CC3)nc3cccnc32)cc1 |  |  | inactive: -12.2% |
| C[S+](=O)([O-])c1ccc(-c2nnc3ccc(C(=O)NCc4cccc(Cl)c4)cn23)cc1 |  | inconclusive: 50.1 µM [inhibitor, single point] |  |
| CC(=O)N1CCN(c2nc3c(s2)CC(C(=O)Nc2ccc(F)c(Cl)c2)CC3)CC1 (centres undefined) |  | active: 20 µM |  |
| O=C1NCc2ccccc2CC12CCN(CC1CCOCC1)CC2 |  |  | inactive: -3.63% |
| Cc1noc([C@@H]2CN(C(=O)c3cc(C)oc3C)C[C@H]2COCC2CC2)n1 |  | inconclusive: 50.1 µM [inhibitor, partial curve, poor fit] |  |
| Cc1ccc(-c2ccc(CN)cc2)c(C)c1 |  | active: 31.6 µM |  |
| COCCNC(=O)CCc1c(C)nn(-c2ccc(F)cc2)c1Oc1ccc(F)cc1F |  | active: 25.1 µM |  |
| CCS(=O)(=O)N1C[C@@H](Oc2cccnc2)C[C@H]1C(=O)N1CCCC1 |  | inconclusive: 70.8 µM [inhibitor, partial curve, poor fit] |  |
| CCOc1ccc(C(=O)N2CCCC3(C2)NC(=O)N(Cc2ccc(Cl)cc2)C3=O)cc1 (centres undefined) |  | inconclusive: 50.1 µM [inhibitor, partial curve, poor fit] |  |
| O=C(c1nnn2c1COC(c1ccc(Cl)cc1)C2)N1CCN(C(=O)C2(c3ccccc3)CC2)CC1 (centres undefined) |  | active: 28.2 µM |  |
| O=C(NC1CC1)c1ccc2nnc(Cc3ccc(Cl)cc3)n2c1 |  | inconclusive: 50.1 µM [inhibitor, partial curve, poor fit] |  |

| Compound | outcome | Potency | activity change, negative = cytotoxicity |
| --- | --- | --- | --- |
| CC(=O)NC1(C)CN(Cc2ccc(-c3ccccc3OCc3ccccc3)s2)C1 |  | active: 28.2 µM |  |
| COC(=O)N1CCCC(N2C(=O)c3c(c(C)nn3-c3ccccc3)C2C(C)C)C1 (centres undefined) |  | inconclusive: 56.2 µM [inhibitor, partial curve, poor fit] |  |
| CC1=C[C@@H](CN2CCOCC2)[C@H](C(C)C)C[C@H]1Cc1nnc(-c2ccc(N(C)C)cc2)o1 |  | inconclusive: 39.8 µM [inhibitor, partial curve, poor fit] |  |
| CCN1C(=O)C2CC3(CCN(C(=O)NCCCOC)CC3)CN2C1=O (centres undefined) |  |  | inactive: -6.48% |
| Cn1ncc2c(C(=O)N3CCOCC3)cc(-c3cccc(F)c3)nc21 |  | inconclusive: 56.2 µM [inhibitor, partial curve, poor fit] |  |
| COCCCNC(=O)C(C)(C)Oc1nn(Cc2cccnc2)c2ccc(COC)cc12 |  | inconclusive: 89.1 µM [inhibitor, partial curve] |  |
| CC(=O)N1CCC(Cc2ccc(C(=O)NC3CCN(Cc4ccccc4)CC3)cc2)CC1 |  | inconclusive: 44.7 µM [inhibitor, partial curve] |  |
| Cc1noc(C)c1-c1cc2c(c(-c3cccc(S(C)(=O)=O)c3)c1)C(=O)N(C)C2 |  | inconclusive: 56.2 µM [inhibitor, partial curve, poor fit] |  |
| O=C(NC1CCCCC1)N1CCc2c(nc(-c3ccncc3)[nH]c2=O)C1 |  |  | inactive: -37.2% |
| CC(C)NC(=O)C1Cn2cccc2C(=O)N1C (centres undefined) |  |  | inactive: 4.08% |
| COCc1nc(C2CCCN(C(=O)COc3ccc(F)cc3)C2)no1 (centres undefined) |  |  | inactive: -16.4% |
| Cc1cc(C)n2ncc(CN3CCCC3c3nc(-c4ccncc4)no3)c2n1 (centres undefined) |  |  | inactive: 1.77% |
| COc1ccc(Nc2cnc3ccc(-c4ccc(F)cc4)nn23)cc1 |  | inconclusive: 44.7 µM [inhibitor, partial curve, poor fit] |  |
| COC(=O)c1ccc2nc(C[C@@H]3C[C@@H](C(C)C)[C@H](CNC(=O)c4ccccc4)C=C3C)[nH]c2c1 |  | inconclusive: 31.6 µM [inhibitor, full curve] |  |
| Cc1cccc(-c2nc3ccc(C(=O)NCCN4CCOCC4)cc3o2)n1 |  | inconclusive: 89.1 µM [inhibitor, single point] |  |
| CNC(=O)c1cc(C2CC2)nc2onc(C3CCN([S+](=O)([O-])c4cccs4)C3)c12 (centres undefined) |  |  | inactive: -26.6% |
| COc1ccccc1-c1nc(C(=O)NCc2ccc(F)cc2)n2ccccc12 |  | inconclusive: 28.2 µM [inhibitor, partial curve] |  |
| O=C(c1cccs1)N1CCC(N(C(=O)NCCc2ccccc2)C2CCOCC2)CC1 |  | inconclusive: 50.1 µM [inhibitor, partial curve, poor fit] |  |
| Cc1ccc(CC(=O)NC2CCN(c3cc(-c4ccc(F)cc4)[nH]n3)C2)cc1 (centres undefined) |  | inconclusive: 44.7 µM [inhibitor, partial curve, poor fit] |  |
| COc1ccccc1Cc1nc(-c2nnn3c2COC(c2ccc(C)cc2)C3)no1 (centres undefined) |  | inconclusive: 35.5 µM [inhibitor, partial curve] |  |
